Where a name gives a salt, the structure may show the parent alone. ± gives the standard deviation of the averaged measurements. The full ranking holds about 1,900 compounds; the median of “normalised cell viability (NPI; 0 = phenylarsine oxide control, 1 = DMSO control)” is about 1, and the lowest 2% start at about 0.039. The list shows a part of the results.
Test system: NCI-H1944
Experiment: normalised cell viability (NPI; 0 = phenylarsine oxide control, 1 = DMSO control) (fraction of DMSO control); NCI-H1944 is a non-small cell lung cancer line; higher = more viable cells (less compound toxicity)
Details: 6 days
[1] = glucocorticoid arm: hydrocortisone 2.75 uM co-treatment, compound 1 µM
[2] = glucocorticoid arm: hydrocortisone 2.75 uM co-treatment, compound 5 µM
[3] = glucocorticoid arm: hydrocortisone 2.75 uM pre-treated 2 days and continued, compound 1 µM
[4] = glucocorticoid arm: hydrocortisone 2.75 uM pre-treated 2 days and continued, compound 5 µM
[5] = glucocorticoid arm: vehicle, compound 1 µM
[6] = glucocorticoid arm: vehicle, compound 5 µM
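Further: CTB read-out in 384-well plates, mean of triplicate wells, normalised per plate against 1 µM phenylarsine oxide and 0.1% DMSO, compounds added 24 h after seeding.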

Compound	normalised cell viability [1]	normalised cell viability [2]	normalised cell viability [3]	normalised cell viability [4]	normalised cell viability [5]	normalised cell viability [6]
Cc1ccc(S(=O)(=O)NC(=O)NN2CCCCCC2)cc1 [Tolazamide]	1.007 ± 0.0058	1.01 ± 0.01	1.01 ± 0.017	1.01 ± 0.026	1.013 ± 0.0058	1.007 ± 0.0058
COc1cc2c(CCNC(C)=O)c[nH]c2cc1Cl [6-Chloromelatonin]	1.013 ± 0.0058	1.01 ± 0.01	1.01 ± 0.01	1.004 ± 0.0078	0.9917 ± 0.006	0.99967 ± 0.00058
CCCN(CCc1ccccc1)C1CCc2c(O)cccc2C1 (racemic) [(±)-PPHT hydrochloride]	0.986 ± 0.011	0.969 ± 0.03	1.05 ± 0.078	0.966 ± 0.02	1.007 ± 0.0058	1.003 ± 0.0058
C=CCn1c(=O)c2c(nc(-c3ccc(S(=O)(=O)O)cc3)n2C)n(C)c1=O [1-Allyl-3,7-dimethyl-8-p-sulfophenylxanthine]	0.982 ± 0.0027	0.979 ± 0.017	0.9887 ± 0.0042	0.976 ± 0.0099	0.984 ± 0.0027	0.9797 ± 0.0086
CCCCCCCCCCCCc1ccc(S(=O)(=O)Nc2nncs2)cc1	1.01 ± 0.021	1.037 ± 0.0058	1.001 ± 0.0085	1.03 ± 0.026	1.001 ± 0.0078	1.01 ± 0.018
c1cncc(CN2CCC(n3ncc4c(N5CCOCC5)nc(-c5ccc6[nH]ccc6c5)nc43)CC2)c1	0.773 ± 0.022	0.532 ± 0.036	0.743 ± 0.027	0.615 ± 0.036	0.542 ± 0.035	0.24 ± 0.0038
COC1CCN(C(=O)c2cc(Cc3n[nH]c(=O)c4ccccc34)ccc2F)CC1	1.002 ± 0.0072	1.05 ± 0.01	1.002 ± 0.0076	1.043 ± 0.0058	1 ± 0.01	0.985 ± 0.0095
Nc1ncnc2c1ncn2C1CCCO1 (stereo unspecified)	1.003 ± 0.0058	0.993 ± 0.017	1.01 ± 0.03	1.027 ± 0.0058	1.007 ± 0.0058	1.01 ± 0.011
Nc1ccn([C@@H]2O[C@H](CO)[C@@H](O)[C@@H]2O)c(=O)n1	0.178 ± 0.001	0.115 ± 0.0035	0.91 ± 0.011	0.31 ± 0.04	0.0325 ± 0.0032	0.0276 ± 0.0059
Nc1ccn([C@@H]2O[C@H](CO)[C@@H](O)[C@@H]2O)c(=O)n1 [Cytosine-1-beta-D-arabinofuranoside hydrochloride]	0.352 ± 0.026	0.163 ± 0.022	1.03 ± 0.017	0.802 ± 0.22	0.0913 ± 0.011	0.0638 ± 0.0066
O=C(NCCO)c1ccc2c(c1)nc(Nc1cccc(Cl)c1)c1ccncc12 [CK2 Inhibitor 2]	1.02 ± 0.022	0.854 ± 0.028	1.03 ± 0.015	1.07 ± 0.021	1.001 ± 0.0081	0.567 ± 0.033
Cc1[nH]c2ccccc2c1CCNCc1ccc(/C=C/C(=O)NO)cc1 [Panobinostat (LBH589)]	0.00703 ± 0.0011	0.00134 ± 0.00097	0.00592 ± 0.0022	0.00214 ± 0.0018	0.00625 ± 0.001	9e-05 ± 0.00045
N[C@@H](Cc1ccc(O)c(I)c1)C(=O)O [3-Iodo-L-tyrosine]	0.982 ± 0.01	0.973 ± 0.035	0.991 ± 0.006	0.996 ± 0.066	0.999 ± 0.011	0.998 ± 0.01
Nc1ccc(C(=O)Nc2cccc(-c3nc(N4CCOCC4)c4oc5ncccc5c4n3)c2)cn1	0.876 ± 0.029	1.02 ± 0.015	0.962 ± 0.014	0.986 ± 0.012	0.377 ± 0.015	0.899 ± 0.02
CN(C)CCCN1c2ccccc2Sc2ccc(Cl)cc21 [Chlorpromazine hydrochloride]	1.01 ± 0.014	0.9463 ± 0.005	1.006 ± 0.0063	1.02 ± 0.033	1 ± 0.012	0.988 ± 0.011
COc1cc([C@@H]2c3cc4c(cc3[C@@H](O[C@@H]3O[C@@H]5CO[C@@H](c6cccs6)O[C@H]5[C@H](O)[C@H]3O)[C@H]3COC(=O)[C@H]23)OCO4)cc(OC)c1O [Teniposide]	0.707 ± 0.048	0.162 ± 0.012	0.976 ± 0.0096	0.613 ± 0.0069	0.271 ± 0.0049	0.0406 ± 0.0044
O=C1NC(=O)/C(=C/c2ccc3c(c2)OC(F)(F)O3)S1	0.985 ± 0.015	1.01 ± 0.022	0.9957 ± 0.0059	1.002 ± 0.0068	0.9993 ± 0.0011	1 ± 0.0087
CCCCOc1cc(CC2CNC(=O)N2)ccc1OC (stereo unspecified)	1.01 ± 0.01	1.01 ± 0.021	1.01 ± 0.011	1.01 ± 0.021	1.013 ± 0.0058	1.013 ± 0.0058
CC(C)Cn1c(=O)n(C)c(=O)c2[nH]cnc21 [3-Isobutyl-1-methylxanthine]	1.003 ± 0.0061	1.01 ± 0.019	0.9957 ± 0.004	1.03 ± 0.094	0.99 ± 0.01	0.993 ± 0.015
CC(C)c1ccc2c(c1)c(SC(C)(C)C)c(CC(C)(C)C(=O)O)n2Cc1ccc(Cl)cc1 [MK-886 sodium hydrate]	0.9957 ± 0.0029	0.977 ± 0.03	1.002 ± 0.0068	1 ± 0.07	0.9823 ± 0.0029	1.002 ± 0.0067
Cc1cc(Nc2nc(N[C@@H](C)c3ccc(F)cc3)c(C#N)cc2F)n[nH]1	0.665 ± 0.045	0.582 ± 0.043	0.808 ± 0.035	0.713 ± 0.047	0.342 ± 0.075	0.191 ± 0.026
CC(/C=C/C(=O)NO)=C\[C@@H](C)C(=O)c1ccc(N(C)C)cc1 [Trichostatin A]	2.17e-05 ± 0.00056	0.000584 ± 0.0001	0.00474 ± 0.0016	0.00101 ± 0.0013	-0.000312 ± 0.00084	0.000187 ± 0.00072
Cc1nc(Nc2ncc(C(=O)Nc3c(C)cccc3Cl)s2)cc(N2CCN(CCO)CC2)n1 [Dasatinib]	0.339 ± 0.025	0.281 ± 0.022	0.427 ± 0.043	0.376 ± 0.015	0.51 ± 0.045	0.436 ± 0.061
Cc1nc(Nc2ncc(C(=O)Nc3c(C)cccc3Cl)s2)cc(N2CCN(CCO)CC2)n1	0.967 ± 0.016	0.957 ± 0.037	0.989 ± 0.024	0.997 ± 0.022	0.957 ± 0.013	0.966 ± 0.0092
CCN1CCN(Cc2ccc(-c3cc4c(N[C@H](C)c5ccccc5)ncnc4[nH]3)cc2)CC1	0.812 ± 0.041	0.693 ± 0.043	0.885 ± 0.014	0.752 ± 0.047	0.8103 ± 0.0047	0.6 ± 0.016
CC(=O)[C@H]1CC[C@H]2[C@@H]3CC=C4C[C@@H](O)CC[C@]4(C)[C@H]3CC[C@]12C [Pregnenolone]	1.04 ± 0.01	1.07 ± 0.026	1.03 ± 0.011	1.02 ± 0.015	1.01	1.007 ± 0.0058

— the supplement of paper PMC8285479
